Measured values as given in the supplement of paper PMC4996465.

Key:
KB3-1 = assay: viability (% of DMSO control); higher = more viable cells
Experimental: (§1)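 Eleven-dose screen of the NCATS MIPE 3 library on cells without co-treatment; CellTiter-Glo after 48 h, as % of DMSO wells.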

Nalm-6 = assay: as above
Experimental: as §1

SMILES	viability (KB3-1; 0.00078 µM) [%]	viability (KB3-1; 0.00234 µM) [%]	viability (KB3-1; 0.00702 µM) [%]	viability (KB3-1; 0.0211 µM) [%]	viability (KB3-1; 0.0632 µM) [%]	viability (KB3-1; 0.19 µM) [%]	viability (KB3-1; 0.569 µM) [%]	viability (KB3-1; 1.71 µM) [%]	viability (KB3-1; 5.12 µM) [%]	viability (KB3-1; 15.4 µM) [%]	viability (KB3-1; 46.1 µM) [%]	viability (Nalm-6; run: 1, 0.00078 µM) [%]	viability (Nalm-6; run: 1, 0.00234 µM) [%]	viability (Nalm-6; run: 1, 0.00702 µM) [%]	viability (Nalm-6; run: 1, 0.0211 µM) [%]	viability (Nalm-6; run: 1, 0.0632 µM) [%]	viability (Nalm-6; run: 1, 0.19 µM) [%]	viability (Nalm-6; run: 1, 0.569 µM) [%]	viability (Nalm-6; run: 1, 1.71 µM) [%]	viability (Nalm-6; run: 1, 5.12 µM) [%]	viability (Nalm-6; run: 1, 15.4 µM) [%]	viability (Nalm-6; run: 1, 46.1 µM) [%]	viability (Nalm-6; run: 2, 0.00078 µM) [%]	viability (Nalm-6; run: 2, 0.00234 µM) [%]	viability (Nalm-6; run: 2, 0.00702 µM) [%]	viability (Nalm-6; run: 2, 0.0211 µM) [%]	viability (Nalm-6; run: 2, 0.0632 µM) [%]	viability (Nalm-6; run: 2, 0.19 µM) [%]	viability (Nalm-6; run: 2, 0.569 µM) [%]	viability (Nalm-6; run: 2, 1.71 µM) [%]	viability (Nalm-6; run: 2, 5.12 µM) [%]	viability (Nalm-6; run: 2, 15.4 µM) [%]	viability (Nalm-6; run: 2, 46.1 µM) [%]
Cc1c(C)c2c(c(C)c1O)CCC(C)(COc1ccc(CC3SC(=O)NC3=O)cc1)O2 (stereo not given) [Troglitazone]	101	104	104	103	103	102	101	101	103	93.1	62.1	104	110	100	107	111	120	116	105	118	109	61.9	103	106	104	104	101	98.5	103	104	105	101	63.8
CC(C)C[C@H](NC(=O)[C@@H](O)[C@H](N)Cc1ccccc1)C(=O)O [Ubenimex]	101	103	104	108	102	103	102	92.3	84.8	81.6	77.8	17.4	36.5	67.1	66	76.4	87.1	92.7	106	105	110	105	111	108	109	112	116	108	109	107	109	105	108
NC(=O)c1ccc(N(C(N)=O)c2c(F)cccc2F)nc1-c1ccc(F)cc1F [VX-702]	104	102	106	105	99.2	95	99.2	99.6	95.3	92.9	91.5	120	113	115	119	116	108	115	111	81.3	104	90.3	107	106	110	109	109	108	105	106	100	72	108
O=C(O)CC/C=C\CC[C@@H]1[C@@H](N2CCCCC2)[C@@H](O)C[C@@H]1OCc1ccc(-c2ccccc2)cc1 [Vapiprost hydrochloride]	107	104	103	106	112	111	113	109	105	105	103	118	127	108	114	116	132	110	126	118	113	101	103	102	105	105	106	107	107	102	102	104	98.4
Cl.Cl.Clc1ccc(Nc2nnc(Cc3ccncc3)c3ccccc23)cc1 [Vatalanib]	99.9	103	105	112	106	103	106	108	107	108	76.1	97.9	86	100	109	107	103	103	102	111	104	49.8	94.8	101	92.7	107	103	95.3	104	95.8	103	98	37.5

Counter-ions that a name gives are not always drawn. Viability of KB3-1 and Nalm-6 cells after 48 h of drug alone (CellTiter-Glo), 11 doses over about 4.5 log units. % of DMSO wells, lower = more cell loss; AC50 from the fitted curve, lower = more potent. No active / inactive call. Nalm-6 was screened in two runs. AC50 is listed only for well-fitted inhibitory curves. KB3-1 is a HeLa-derived carcinoma line, Nalm-6 a B-cell precursor leukaemia line.
